The supplement of paper PMC10338343
± gives the standard deviation. The full ranking holds about 6,600 sequences; the median of “pre-steady-state target cleavage rate” is about 0.07, and the highest 2% start at about 0.72. This is a selection; strong and weak results do not stand in their true shares.

system: MIWI (PIWIL1) piRISC loaded with Kctd7 piRNA (30 nt); experiment: pre-steady-state target cleavage rate (min^-1); MIWI and MILI are mouse PIWI proteins and EfPiwi is from a freshwater sponge; tags in brackets are library labels; higher = faster piRNA-guided slicing of the target; details: guide: Kctd7 piRNA 5'p-UGUUAAUCUCUCAGAGAAGGUGACAGUGAU; auxiliary factor: 500 nM mouse GTSF1
Experimental: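 Cleave-'n-Seq: a library of target RNAs (target site embedded in constant flanks, ACAGCATTCCGCGTTAGTGATATCCG... 5' flank; DNA-blocked outside the site) at 0.1 nM was incubated with 1 nM active mouse MILI or MIWI piRISC (synthetic 5'-monophosphorylated piRNA guide) with or without 500 nM mouse GTSF1 at 33 °C for 1 min to 16 h. Uncleaved targets were sequenced and normalised to non-target controls, and the pooled three trials were fitted to a burst-and-steady-state model to give the pre-steady-state cleavage rate (min^-1; k3 is constrained to at most 1e-4). Sequence is the target site only; target names encode pairing extent (gX:gY) and contiguous / 1-mismatch / 2-mismatch / bulge geometry. Fits with R² ≤ 0 are excluded.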

Sequence	pre-steady-state target cleavage rate
UAGUGAGUGACCUUCUCUGAGAGUUUAACA	0.269 ± 0.042
UAGUGACAGUGGAACUCUGAGUCAUUAACA	0.0112 ± 0.0083
UAGUGUCACACCUUCUCUGAGAGAUUAUGA	0.099 ± 0.028
AUCACUGUCACCUUCUCUGAGAGAAUAUGA	0.0904 ± 0.029
UACACUGUCACCUUCUCUGAGUGAUUAACA	0.0334 ± 0.0073
AACUCUGUCACCUUCUCUGAGAGAUUAACA	0.715 ± 0.034
UACACUGUCACCUUCUCUGAGAGAUUAGCA	0.266 ± 0.039
UACACUGUCACCUUCUCUGAUAGAUUAACA	0.604 ± 0.03
AUCACUGUCUCCUUCUCUGAGAGAAUAACA	0.335 ± 0.056
UAGUCUCUCACCUACUCUGAGAGAUUAACA	0.0366 ± 0.0071
UAGUGACACACCUUCACUGAGUGAUUAACA	0.0157 ± 0.005
UACACUGACACCUUCUCUGUGAGAUUAACA	0.181 ± 0.019
UAGUGUGUCACCUUCUCUGAGAGAAUAACA	0.32 ± 0.052
UAGUGUGUCACUCUUCUCUGAGAGAUUAACA	0.3 ± 0.025
UACACUGUGACCUUCUCUGAGACAUUAACA	0.143 ± 0.011
UAGUGUGUCACCUUCUCUGAGAAAUUAACA	0.173 ± 0.019
UACAGUGUCACCUUCUCUCAGAGAUUAACA	0.119 ± 0.013
UACACUGUCACCUUCUCUGAGAGUAAUUGA	0.0959 ± 0.034
UUCAGUGUCACCUUCUCUGAGACAUUAACA	0.188 ± 0.016
UAGUGUGUCACCUUCUCUGAGAGAUUAUACA	0.236 ± 0.035
AUCUCUGUCACCUUCUCUGUGAGAUUAACA	0.276 ± 0.011
UUCACUGUCACCUUCUCUGAGAGAUUACA	0.449 ± 0.07
UAGUCUGUCAGGUUCUCUGAGAGAUUAACA	0.318 ± 0.023
UAGUGUCUCACCUUCACUGAGAGAUUAACA	0.276 ± 0.019

Sequence	pre-steady-state target cleavage rate
AUCACUGACACCUUCUCUGAGAGAUAAACA	0.305 ± 0.054
UACACUGUCACCUUCUGUGAGAGAUUAACA	0.613 ± 0.034
UAGACUGUGACCUUCUCUGUGAGAUUAACA	0.22 ± 0.013
UAGUGACAGACCUUCUCUGAUAGAUUAACA	0.257 ± 0.029
UAGUCUGUCACCUUCUGUCAGAGAUUAACA	0.01 ± 0.0034
UUGUGUGUCACCUUCUCUGAGAGAUUAAGA	0.166 ± 0.025
UAGUGACAGUCCUUCUCUGAGAGAGUUAACA	0.0494 ± 0.009
UAGUGACUCACCAUCUCUGAGAGAUUAAGA	0.0202 ± 0.0057
UAGUGACACACCUUCUCUGAGUCAUUAACA	0.00484 ± 0.003
UAGUGUGUCUCGUUCUCUGAGAGAUUAACA	0.345 ± 0.027
AUCAGUGUCACCUUCUCAGAGAGAUUAACA	0.425 ± 0.027
UACACUGAGACCUUCUCUGAGAGAUUAAGA	0.09 ± 0.026
AAUCACUGUCACCUUCUCUGAGAGAUUAACA	0.81 ± 0.043
UAGACUGAUCACCUUCUCUGAGAGAUUAACA	0.65 ± 0.046
UAGUGACACACCUUCUCUGAGAGUAUAACA	0.0487 ± 0.0099
AUCACUGUCACCUUCUCUAGAGAUUAACA	0.192 ± 0.02
AUCACUGUCACCUUCUCUGAGAGAUUAACG [g2:g30:cont:t1G]	0.713 ± 0.037
UUCACUGUCUGGUUCUCUGAGAGAUUAUGA	0.00454 ± 0.0026
UAGUGUGUCACGUUCUCUGACAGAUUAACA	0.172 ± 0.02
UAGUGACAGAGCUUGUCUGAGAGAUUAACA	0.00642 ± 0.0034
UAGUGUGUCACCUUCUCUGUGAGAUUUACA	0.138 ± 0.02
UAGUGACAGUCCUUCUGUGAGAGAAUAACA	0.00351 ± 0.0033
UAGUGACAGACCAUCUCUGAGAGAUUAACA	0.0276 ± 0.0056
UAGACUGUGUGCUUCUCUGAGAGAUUAACA	0.0272 ± 0.0052

Sequence	pre-steady-state target cleavage rate
UAGUGACAGUCACUUCUCUGAGAGAUUAACA	0.4 ± 0.043
UUCACUGUCACCUACUCUGAGAGAUAUUGA	0.0061 ± 0.0034
AAGACUGUCACCUUCUCUGAGAGAUUAUGA	0.0913 ± 0.017
UACACUGUCACCUUCUCAGAGUGAUUAACA	0.0181 ± 0.0067
UAGUGACACACCAUCUCAGAGAGAUUAACA	0.0136 ± 0.0046
AUCAGUGUCACCUUCUCUGAGAGAUUUUGA	0.102 ± 0.027
UAGUCAGUCACCUUCUCUGAGACAUUAACA	0.215 ± 0.017
UAGUGACUCACCUUCUCUCAGAGAUUAUCA	0.0386 ± 0.0072
AUCACUGUGACCUUCUCUGAGAGAUUAAGA	0.194 ± 0.027
AUCAGUGUCACCUUCUCUCAGAGAUUAACA	0.118 ± 0.0098
UAGUCUGAGACCUUCUCUGAGAGAUUAUGA	0.0156 ± 0.0038
UAGUGACUCACCUUCUCUGAGAGGUUAACA	0.217 ± 0.025
UAGUGACACACCUUCGCUGAGAGAUUAACA	0.106 ± 0.012
UAGUCUGUCACCAUCUCUGAGAGAUAAACA	0.246 ± 0.025
UUCACUCUCACCUUCUCUGACAGAUUAACA	0.525 ± 0.031
UAGUCUGUCACCUUGCUCUGAGAGAUUAACA	0.47 ± 0.081
UUCACUGUCACCUUCUCUGAGAGAUUAAACA	0.406 ± 0.04
UUCACUGUCACCUUCUCAGAGAGAAUAACA	0.0792 ± 0.02
UAGUGACUCACCUUCUCUGAGAGGAUUAACA	0.172 ± 0.015
UAGUGAGUCACCUUACUCUGAGAGAUUAACA	0.38 ± 0.034
UAGUGACAGACCUUCGCUGAGAGAUUAACA	0.0274 ± 0.0057
UUCACUGUCACCUUCUCUGAGUCAUUUUGA	0.00539 ± 0.0029
UAGUGACAGACCUUCUCUGAGAGUAUAACA	0.0111 ± 0.0039
UAGUGACAGACCUUCUCUGAGAGAUUAUACA	0.0925 ± 0.017
